{
  "source": "PubChem BioAssay AID686970",
  "about": "(National Center for Advancing Translational Sciences (NCATS), 2013)",
  "note": "Among all 360,000 compounds or so, about 6,000 (1.7%) were called active. This list was built around the results that the source calls inconclusive (neither active nor inactive); the mix of calls is not that of the screen. Calls come from the whole dose curve; as a rule, active = well fitted cell-killing curve with a large enough effect; inconclusive = small, poorly fitted or top-dose-only effect, or effect the other way; inactive = flat fitted curve, though single readings scatter. Potencies of inconclusive entries are left out as doubtful fits. Potency is the fitted concentration of half-maximal effect; tags give direction and shape of the fitted curve.",
  "data": [
    {"test": "qHTS for induction of synthetic lethality in tumor cells producing 2HG: qHTS for the HT-1080-NT fibrosarcoma cell line;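 note: NT is the 2HG producing partner of a matched IDH1 knockdown line; nearly all actives have a fitted effect of over 55% in size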;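 for activity, negative = less viability: 0% = DMSO-treated cells and -100% = media-only wells without cells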", "conditions": "HT-1080-NT fibrosarcoma viability, CellTiter-Glo ATP luminescence, 48 h; activity, negative = less viability: at 46.1 µM (top of the series) unless noted", "outline": "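Viability of the 2HG-overproducing fibrosarcoma line after 48 hours of compound exposure at 37 degrees C was determined by luminescence with CellTiter-Glo, and concentration-effect curves were then fitted and categorized.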", "values": [
      {"smiles": "CC1=C(C(=O)N(C(C)C)C(C)C)CC(CC(=O)NCCCN(C)C)C(=O)N1Cc1ccc(C(C)(C)C)cc1", "note": "(centres undefined)", "Potency": "inconclusive [cytotoxic, single point]"},
      {"smiles": "CCOC(=O)C(=O)/C(C#N)=C/Nc1ccccc1", "activity, negative = less viability": "inactive: 9.37%"},
      {"smiles": "CC/C(=N/Nc1cccc(C)c1)c1cnnc(SC)n1", "Potency": "inconclusive [cytotoxic, single point]"},
      {"smiles": "COc1ccccc1CN(Cc1cc2cc(C)cc(C)c2[nH]c1=O)Cc1nnnn1CC1CCCO1", "note": "(centres undefined)", "Potency": "inconclusive [cytotoxic, single point]"},
      {"smiles": "C=C1C(=O)OC2C1CCC(C)=C1C(=O)C3OC3(C)C12", "note": "(centres undefined)", "Potency": "inconclusive [cytotoxic, single point]"},
      {"smiles": "COc1ccc(C(C)=NNS(=O)(=O)c2ccc(C)cc2)cc1OC", "activity, negative = less viability": "inactive: -5.23%"},
      {"smiles": "CN(C)c1cccc(/C=C(\\C#N)c2ccccc2)c1", "Potency": "inconclusive [cytotoxic, full curve]"},
      {"smiles": "Cc1cc(C)c(C)c(S(=O)(=O)N2CCC(C(=O)Nc3ccncc3)CC2)c1C", "Potency": "inconclusive [cytotoxic, partial curve]"},
      {"smiles": "COCCC(C(=O)Oc1c(C(C)(C)C)cc(C)cc1C(C)(C)C)c1ccccc1", "note": "(centres undefined)", "Potency": "inconclusive [rising, single point]"},
      {"smiles": "COCCNc1nc(NCC2CCCCC2)c2sc(-c3ccccc3)cc2n1", "Potency": "active: 18.4 µM"},
      {"smiles": "CCCCc1ccc(NC(=O)CSC2=C(C#N)C(c3ccco3)C3=C(CCCC3=O)N2)cc1", "note": "(centres undefined)", "Potency": "inconclusive [cytotoxic, single point]"},
      {"smiles": "CC1(C(=O)Nc2cccc(C(F)(F)F)c2)Cc2c(-c3cccc(C(N)=O)c3)ccnc2O1", "note": "(centres undefined)", "Potency": "inconclusive [cytotoxic, single point]"},
      {"smiles": "C=CCn1c(SCC(=O)Nc2ccc(O)cc2)nc2sc(CC)cc2c1=O", "Potency": "inconclusive [cytotoxic, full curve, poor fit]"},
      {"smiles": "COC(=O)C1=C(C)OC(N)=C(C#N)C1c1ccccc1F", "note": "(centres undefined)", "activity, negative = less viability": "inactive: 4.08%"},
      {"smiles": "Cc1ccc(-c2csc(N=C(N)N)n2)c(C)c1", "Potency": "inconclusive [cytotoxic, single point]"},
      {"smiles": "CC(C)CCNC(=O)c1c(CSc2ccc(Cl)cc2)noc1C(=O)NCc1ccccc1", "activity, negative = less viability": "inactive: -1.64%"},
      {"smiles": "COc1ccccc1NC(=O)N(C)C[C@H]1OCc2cnnn2CCCC(=O)N([C@H](C)CO)C[C@@H]1C", "activity, negative = less viability": "inactive: 0.967%"},
      {"smiles": "C/C(=N\\NC(=O)c1ccc(NS(=O)(=O)c2cccs2)cc1)c1ccc(C(C)(C)C)cc1", "Potency": "inconclusive [cytotoxic, partial curve]"},
      {"smiles": "O=C(Nc1nc2ccccc2[nH]1)c1cccc([N+](=O)[O-])c1", "activity, negative = less viability": "inconclusive: 32.6%"},
      {"smiles": "O=C(Nc1ccc(Cl)c([N+](=O)[O-])c1)C(NCCCO)c1ccccc1", "note": "(centres undefined)", "activity, negative = less viability": "inactive: -4.76%"},
      {"smiles": "CN(C)c1nc(SCC(=O)Nc2ccccc2)nc(N2CCOCC2)n1", "activity, negative = less viability": "inactive: -2.37%"},
      {"smiles": "CCOC(=O)c1sc(-c2cccc([N+](=O)[O-])c2)cc1N", "Potency": "inconclusive [cytotoxic, single point]"},
      {"smiles": "CCOC(=O)Cc1csc(NC(=O)Nc2ccc(Cl)cc2)n1", "Potency": "inconclusive [cytotoxic, single point]"},
      {"smiles": "CC(/C=C/c1ccc(N(C)C)cc1)=N/N=C1/NC(=O)CC(C(=O)Nc2ccc(Cl)cc2)S1", "note": "(centres undefined)", "Potency": "inconclusive [cytotoxic, single point]"},
      {"smiles": "Cc1ccc(S(=O)(=O)c2cccc(S(=O)(=O)N3CCCC3)c2)cc1S(=O)(=O)N1CCCC1", "Potency": "inconclusive [cytotoxic, single point]"},
      {"smiles": "OC(CN1C2=NCCN2c2ccccc21)c1ccc2c(c1)OCO2", "note": "(centres undefined)", "Potency": "inconclusive [cytotoxic, single point]"},
      {"smiles": "COC(=O)C[C@H]1C=C[C@@H](NC(=O)c2ccncc2)[C@@H](CO)O1", "activity, negative = less viability": "inactive: 8.92%"},
      {"smiles": "OC(CNCC1CCCO1)Cn1c2ccc(Br)cc2c2cc(Br)ccc21", "note": "(centres undefined)", "Potency": "active: 20.6 µM"},
      {"smiles": "CSc1ccc(C(=O)N2CCC(CCC(=O)NC3CC3)CC2)cc1", "activity, negative = less viability": "inconclusive: 13.3%"},
      {"smiles": "Cc1csc2nc(CNS(=O)(=O)c3ccc(-c4ccccc4)cc3)cn12", "Potency": "inconclusive [cytotoxic, single point]"},
      {"smiles": "C=CCn1c(-c2cccn(Cc3ccc(Cl)cc3Cl)c2=O)n[nH]c1=S", "Potency": "inconclusive [cytotoxic, single point]"},
      {"smiles": "COc1cc(CC(=O)OCC(=O)c2ccc3c(c2)OCCO3)cc(OC)c1OC", "Potency": "active: 1.64 µM"},
      {"smiles": "CCn1cc([N+](=O)[O-])c(C(=O)N2N=C(c3ccc(Cl)c(Cl)c3)CC2c2ccccc2O)n1", "note": "(centres undefined)", "Potency": "active: 23.1 µM"},
      {"smiles": "Cc1ccc(-n2c(O)c(C=Nc3ccccc3-c3n[nH]c(=S)[nH]c3=O)c3ccccc3c2=O)cc1C", "Potency": "inconclusive [cytotoxic, single point]"},
      {"smiles": "COCc1ccc(C(=O)N2CCc3c([nH]c4ccccc34)C2c2ccccn2)s1", "note": "(centres undefined)", "Potency": "inconclusive [cytotoxic, single point]"},
      {"smiles": "Cc1cccc(NC(=O)CNC(=O)CN2C(=O)NC3(CCc4ccccc43)C2=O)c1C", "note": "(centres undefined)", "activity, negative = less viability": "inactive: -1.51%"},
      {"smiles": "COc1ccc(-c2cc(C(=O)N3CCN(C(c4ccccc4)c4ccccc4)CC3)no2)cc1OC", "activity, negative = less viability": "inactive: 8.42%"},
      {"smiles": "Cc1cc2cc(CN(Cc3cccs3)Cc3nnnn3CC3CCCO3)c(=O)[nH]c2cc1C", "note": "(centres undefined)", "Potency": "inconclusive [cytotoxic, single point]"},
      {"smiles": "CC(C)(C)N=C1NN=C(c2cc3ccccc3o2)CS1", "activity, negative = less viability": "inactive: -11%"},
      {"smiles": "Cc1cc(=O)[nH]c(S/C=C/c2ccccc2)n1", "Potency": "inconclusive [cytotoxic, single point]"},
      {"smiles": "O=C(Nc1ccc2c(c1)CCCN2C(=O)c1cccs1)c1cccc(F)c1", "Potency": "inconclusive [cytotoxic, single point]"},
      {"smiles": "CCOc1ccccc1NC(=O)Cn1nnc(C(=O)NCc2cccs2)c1N", "Potency": "active: 0.461 µM"},
      {"smiles": "O=[N+]([O-])c1ccc(N(CC2CO2)S(=O)(=O)c2ccccc2)cc1", "note": "(centres undefined)", "Potency": "inconclusive [cytotoxic, single point]"},
      {"smiles": "CCOc1ccccc1NC(=O)c1cc(-c2ccncc2)nc2c(Cl)cccc12", "Potency": "inconclusive [cytotoxic, partial curve]"},
      {"smiles": "CCOC(=O)c1c(C)oc2c1c(C(c1cccnc1)N1CCOCC1)c(O)c1ccccc12", "note": "(centres undefined)", "Potency": "inconclusive [cytotoxic, single point]"},
      {"smiles": "O=C(/C=C\\c1ccco1)NC(=S)Nc1ccccc1O", "Potency": "inconclusive [cytotoxic, single point]"},
      {"smiles": "CCc1nc2ccc(C(=O)N3CCCC(C(N)=O)C3)cn2c1N(C)Cc1ccc(OC)cc1", "note": "(centres undefined)", "Potency": "inconclusive [rising, single point]"},
      {"smiles": "O=C(CSc1nc2ccccc2c(=O)[nH]1)Nc1ccc([N+](=O)[O-])cc1", "Potency": "inconclusive [cytotoxic, partial curve]"},
      {"smiles": "Nc1[nH]c(=O)[nH]c(=O)c1N=Nc1ccc(C(=O)O)cc1", "activity, negative = less viability": "inactive: 2.35%"},
      {"smiles": "CC1CN(c2ccc([N+](=O)[O-])c(NCCOc3ccccc3)c2)CC(C)N1", "note": "(centres undefined)", "Potency": "active: 16.4 µM"},
      {"smiles": "Cc1ccc(C(=O)N2CCN(c3ccc([N+](=O)[O-])cc3)CC2)o1", "activity, negative = less viability": "inactive: -7.7%"},
      {"smiles": "Cc1oc(-c2ccc(Cl)cc2)nc1CSCC(=O)NC1CCN(Cc2ccccc2)CC1", "Potency": "inconclusive [cytotoxic, partial curve, poor fit]"},
      {"smiles": "Cc1cc(C)c2ccc3c(C)c(C)nc3c2[nH]1", "Potency": "inconclusive [cytotoxic, partial curve]"},
      {"smiles": "CC(C)OC(=S)N/C(=N\\S(=O)(=O)c1ccccc1)c1ccccc1", "Potency": "active: 7.08 µM"},
      {"smiles": "Cc1cccc(NS(=O)(=O)c2ccc(-c3cnc(C4CC4)o3)cc2)c1C", "Potency": "inconclusive [cytotoxic, full curve]"},
      {"smiles": "CC1(C(=O)NCc2ccco2)Cc2c(-c3ccccc3)ccnc2O1", "note": "(centres undefined)", "Potency": "inconclusive [cytotoxic, full curve]"},
      {"smiles": "COc1ccc(OC)c(CCNC(=O)Cn2cccc2C(=O)c2ccccc2C)c1", "Potency": "inconclusive [rising, single point]"},
      {"smiles": "CCCC(=O)N1CC(=O)Nc2ccc(Br)cc2C1c1ccc(F)cc1", "note": "(centres undefined)", "activity, negative = less viability": "inactive: -5.4%"},
      {"smiles": "O=C(CCl)N1N=C(c2ccco2)CC1c1cccs1", "note": "(centres undefined)", "Potency": "inconclusive [cytotoxic, single point]"},
      {"smiles": "CCCCn1c(=N)n(CC(=O)c2ccco2)c2ccccc21", "Potency": "inconclusive [cytotoxic, single point]"},
      {"smiles": "COC(=O)c1ccc(NC(=O)CSC2=NCCN2)cc1", "Potency": "inconclusive [cytotoxic, single point]"},
      {"smiles": "Cc1ccsc1C(=O)Nc1ccc2c(c1)OCCO2", "activity, negative = less viability": "inactive: -10.3%"},
      {"smiles": "COc1cccc(-c2nc(-c3ccc(Br)o3)no2)c1", "Potency": "inconclusive [rising, single point]"},
      {"smiles": "Cc1ccc(C)c(OCc2cc(C(=O)NC3CCN(Cc4ccccc4)CC3)no2)c1", "Potency": "inconclusive [cytotoxic, partial curve]"},
      {"smiles": "O=c1c2ccccc2nc(/C=C/c2cccc(Br)c2)n1CCCO", "Potency": "inconclusive [cytotoxic, single point]"},
      {"smiles": "Cc1ccc(-c2nnn(CC(=O)Nc3ccc(S(=O)(=O)N4CCC(C)CC4)cc3)n2)cc1", "Potency": "active: 23.1 µM"},
      {"smiles": "CCC(C)NCC(O)(c1ccc(Cl)cc1)c1ccc(Cl)cc1", "note": "(centres undefined)", "Potency": "inconclusive [cytotoxic, single point]"},
      {"smiles": "Cc1cc(SCNC(=O)c2ccccc2)nc(C(C)C)n1", "activity, negative = less viability": "inactive: 6.29%"},
      {"smiles": "Cc1c(C(=O)NCc2ccccn2)sc2nc(-c3ccccc3)cn12", "Potency": "inconclusive [cytotoxic, full curve]"}
    ]}
  ]
}
